Some of the results follow.

In the experiment the target is T1, OsWOX13 (Oryza sativa, UniProt Q5QMM3 1-267).
T1 sequence: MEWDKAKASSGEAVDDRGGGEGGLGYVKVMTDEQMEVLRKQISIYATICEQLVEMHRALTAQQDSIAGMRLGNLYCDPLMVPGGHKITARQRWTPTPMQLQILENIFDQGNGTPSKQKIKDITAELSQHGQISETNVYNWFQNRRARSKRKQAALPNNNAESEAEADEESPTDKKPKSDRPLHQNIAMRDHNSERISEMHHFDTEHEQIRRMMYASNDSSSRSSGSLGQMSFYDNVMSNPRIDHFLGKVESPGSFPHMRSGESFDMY
The experiment is described as follows: protein-binding microarray (RPBM); PBS, 2% BSA, 51.3 ng/ul salmon testes DNA, 50 uM zinc acetate, 200 nM TF, 25 C, 1 h; high values mean tight binding. The settings on record: protein: recombinant; tags: N-terminal polyhistidine and DsRed monomer fusion (pET32a); label: CyDye5-dUTP incorporated in the synthesized complementary strand; 3' TTTTT single-stranded linker to array surface; dsDNA, one strand shown. The method, boiled down: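 Ni–NTA purification followed expression in E. coli BL21-CodonPlus of transcription factors fused N-terminally to a polyhistidine tag and DsRed. At 200 nM in PBS with 2% BSA, salmon testes DNA and 50 µM zinc acetate, the protein was incubated for 1 h at 25 °C with a custom Agilent array that had been primer-extended with Cy5-dUTP and blocked with 2% BSA. After washing, the array was read on an Axon 4000B scanner. The binding signal is per-feature fluorescence intensity in arbitrary units.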
“AACCCCGCAGCCAATCAGAATCAGCTTTCCTCCTTGCCCCCGGAGTCACCTAGTGCAG”: the binding signal was 3300 fluorescence intensity (a.u.).

“GGTTATGGATAATCAATTTACGTTGTGCTCAGCTAACAATCGGAGTCACCTAGTGCAG”: the binding signal was 6820 fluorescence intensity (a.u.).

Regarding “AGTTTCATTAAATTTAATATTAAACATATTTTGATAATATCGGAGTCACCTAGTGCAG”, the binding signal is 5680 fluorescence intensity (a.u.).

On to “TCTATCCCAATTAATCATACCCTAAAATTTGTACGTCTTACGGAGTCACCTAGTGCAG”, for which the binding signal was 4670 fluorescence intensity (a.u.).

Consider “AAAATTGAATTGTCAAAGTCGGATGAAACCATGTGTTCCCCGGAGTCACCTAGTGCAG”, for which the binding signal is 26900 fluorescence intensity (a.u.).

“GATGTTTTGACTTTGATTAAAGTCAAACTAAGTTTGGCTACGGAGTCACCTAGTGCAG”: the binding signal was 3970 fluorescence intensity (a.u.).

Regarding “CTTGGACGATGCTGGTTAATTAATTAGCTAGAGGTAGTAGCGGAGTCACCTAGTGCAG”, the binding signal was 11000 fluorescence intensity (a.u.).

On to “ACCAGAATATTTGACTGGTAATTTCTATGTAATATGTTAGCGGAGTCACCTAGTGCAG”, for which the binding signal is 10800 fluorescence intensity (a.u.).

For the sequence “CCTAACAGCTAATAATAAACAGATAGAAAGATGCTCTGTCCGGAGTCACCTAGTGCAG”, the binding signal was 24000 fluorescence intensity (a.u.).

“ATGATAGACTTGAACAGGAAAGGTCAAGCAAGAGCTAATACGGAGTCACCTAGTGCAG”: the binding signal was 5060 fluorescence intensity (a.u.).

Consider “TTAATTGCTAAGCTGTTCCGTCCATGGTTCACACTTCACACGGAGTCACCTAGTGCAG”, for which the binding signal is 10600 fluorescence intensity (a.u.).

“TATATATATATATATATATATATATATATATATATGAAAGCGGAGTCACCTAGTGCAG”: the binding signal is 22400 fluorescence intensity (a.u.).

Turning to “TCTTGCAAATTTAAATTTCAAGTTGAAAATTTTCAAAGTTCGGAGTCACCTAGTGCAG”, the binding signal was 7610 fluorescence intensity (a.u.).

Consider “GCTTTCAATAAAACTTCATTAATTGAGGCTAAAATGTTACCGGAGTCACCTAGTGCAG”, for which the binding signal was 5100 fluorescence intensity (a.u.).

Regarding “CTAATCAAAATGTAATTAACTCATTTATATATTACGGAAACGGAGTCACCTAGTGCAG”, the binding signal was 21800 fluorescence intensity (a.u.).

For “CCTTGCTTTGTTAATTGCTCGATCTCTTGCAGCTGCGCATCGGAGTCACCTAGTGCAG”, the binding signal was 5380 fluorescence intensity (a.u.).

Consider “ACTGATGGAGAGCATCAGAGGAAGCTATGAGCACAATGTCCGGAGTCACCTAGTGCAG”, for which the binding signal was 4000 fluorescence intensity (a.u.).

Consider “TTTAATATTTATAATTAATGTCAAACATCAGATGTGATAGCGGAGTCACCTAGTGCAG”, for which the binding signal was 12700 fluorescence intensity (a.u.).

As for “GCTTGTATTTTAACTAATTATTCTTGTAGTGGTCGATGATCGGAGTCACCTAGTGCAG”, the binding signal was 5440 fluorescence intensity (a.u.).

Regarding “TTAAATTCAGATAATTAGCAAAGATCTGTAGTGGATGCTGCGGAGTCACCTAGTGCAG”, the binding signal was 27100 fluorescence intensity (a.u.).

Consider “CTATATATTCAGGCCCGTTGATTGAACTTCTCAGCACAGACGGAGTCACCTAGTGCAG”, for which the binding signal was 18800 fluorescence intensity (a.u.).

For the sequence “CCCAATCTTTTAAATTAGGCCCATTACTATGCAGCCCGTTCGGAGTCACCTAGTGCAG”, the binding signal was 3860 fluorescence intensity (a.u.).

As to “ATTAATTAGATATTAACAATTATAAAATTGAAAATGAGTACGGAGTCACCTAGTGCAG”, the binding signal was 24100 fluorescence intensity (a.u.).

For the sequence “TCGTGTGTGCCAATCACCGAGCGCGGCAAACAAATTCTGTCGGAGTCACCTAGTGCAG”, the binding signal is 7860 fluorescence intensity (a.u.).

“GACAAATCTTTAAAGCCTGATTGCGCCATGATTGACAATGCGGAGTCACCTAGTGCAG”: the binding signal was 40200 fluorescence intensity (a.u.).

For the sequence “CCAAAATATATTAATTAGCTCAGGTATGTACCCGCCCAATCGGAGTCACCTAGTGCAG”, the binding signal was 10700 fluorescence intensity (a.u.).

As for “GATAATTGACAAATACAATAATGACAAATAGTTAAATTCCCGGAGTCACCTAGTGCAG”, the binding signal is 42100 fluorescence intensity (a.u.).

On to “TTTTCTCCTTGATTAGCCAGCTAATCAATCGATTATCCTCCGGAGTCACCTAGTGCAG”, for which the binding signal is 24800 fluorescence intensity (a.u.).

For “TCGTTCTAATTTCTTCGAATTCAATTTTAACGTGAAAGCACGGAGTCACCTAGTGCAG”, the binding signal was 4710 fluorescence intensity (a.u.).

As to “GCAGTATAATCAATCAGCCATTCATGTGTTTTGCAATCATCGGAGTCACCTAGTGCAG”, the binding signal is 14500 fluorescence intensity (a.u.).

For the sequence “TTAGACATTTTGTGATTTAACAAATTTTGTACACACATATCGGAGTCACCTAGTGCAG”, the binding signal was 18600 fluorescence intensity (a.u.).

With “ATAATAAACTGATTTGATTAAGTATATGTGCATTAGGGTGCGGAGTCACCTAGTGCAG”, the binding signal was 46900 fluorescence intensity (a.u.).

For “ATTTTAGACTCAGCGCCAAATTGACGGACCTAAAGTGAATCGGAGTCACCTAGTGCAG”, the binding signal was 7760 fluorescence intensity (a.u.).

As to “TTGATTTATTTGCAGATTAATTCCGATCGAAATTAAAGTTCGGAGTCACCTAGTGCAG”, the binding signal is 25100 fluorescence intensity (a.u.).

For “CTCTGACAAAATAAACTAGAGAGGTGGAGCTCGGTTTAGGCGGAGTCACCTAGTGCAG”, the binding signal was 5010 fluorescence intensity (a.u.).

For “GGATTCAGCATACCAATCTAATTAGGTTATTGGGGTGGTGCGGAGTCACCTAGTGCAG”, the binding signal was 7140 fluorescence intensity (a.u.).

As to “CCCTCAAAATTAGTTCAATTTATGTAAAATTTCAAACTTTCGGAGTCACCTAGTGCAG”, the binding signal is 12600 fluorescence intensity (a.u.).

As for “CTTAATTAATTCGATCGACATCGATCTTGATGATTCCCTGCGGAGTCACCTAGTGCAG”, the binding signal was 33500 fluorescence intensity (a.u.).

With “ACATTTAATACTTCTAATTAGCGTCCAAACATCTGATGTGCGGAGTCACCTAGTGCAG”, the binding signal was 9640 fluorescence intensity (a.u.).

With “GTGGGTGATTTGTTGCAAAAGAATATTTTAATTCACTGTACGGAGTCACCTAGTGCAG”, the binding signal is 11700 fluorescence intensity (a.u.).

Regarding “GATTAATGAAGTTTTAATTAAACCGAGACAAAATCTTTATCGGAGTCACCTAGTGCAG”, the binding signal is 14700 fluorescence intensity (a.u.).

For the sequence “TATACATTGAAATTTATAATTGCGTGTAATATAGGATGGACGGAGTCACCTAGTGCAG”, the binding signal was 10100 fluorescence intensity (a.u.).

With “CACCAATCAGATCATCAGTTCATCTTTGTGGTTGTGTGGGCGGAGTCACCTAGTGCAG”, the binding signal was 18100 fluorescence intensity (a.u.).

Consider “ACAGTGAAATCAATCCAAAATCATTTATAGGCAATGTACTCGGAGTCACCTAGTGCAG”, for which the binding signal was 3520 fluorescence intensity (a.u.).

Regarding “AATAAATAAATGAGGACTTGTTATAGTTGGTTGAGATGAACGGAGTCACCTAGTGCAG”, the binding signal is 4120 fluorescence intensity (a.u.).

For the sequence “CTAAATTGATTATACATGATTTAGAGTTAGTAGTTAGCTACGGAGTCACCTAGTGCAG”, the binding signal was 59600 fluorescence intensity (a.u.).

As to “CCAATTCAATTAATAGGTATTCAAATGAATACCCAAGATTCGGAGTCACCTAGTGCAG”, the binding signal was 8620 fluorescence intensity (a.u.).

Turning to “ATAATGATAATCAAGCATGATTCGTTGGTTTGGAGTACCACGGAGTCACCTAGTGCAG”, the binding signal was 15700 fluorescence intensity (a.u.).

As for “CTTGATTCATCAACAAATGTTATTTAAATATGACATAAATCGGAGTCACCTAGTGCAG”, the binding signal is 3240 fluorescence intensity (a.u.).

In the case of “GAAGGAGTTGAGGATTGACATTAATTATCAGCGCATAGGGCGGAGTCACCTAGTGCAG”, the binding signal was 6240 fluorescence intensity (a.u.).

“ACACATAAAAGATAGATAGATAATGGATAGAGAACCAGTCCGGAGTCACCTAGTGCAG”: the binding signal is 5110 fluorescence intensity (a.u.).

Take “TAGCTAATTTGCACCCACATGCATGTGCTTCGAGTAGTTACGGAGTCACCTAGTGCAG”: the binding signal was 7070 fluorescence intensity (a.u.).

Turning to “TATTAGCACATGATTAATTAAGTACAAGATAGGTATCCCGCGGAGTCACCTAGTGCAG”, the binding signal was 9350 fluorescence intensity (a.u.).

Regarding “ACCCCTTCTAATTAATTGATATTATGTACTTCCCTAATATCGGAGTCACCTAGTGCAG”, the binding signal is 37700 fluorescence intensity (a.u.).

For the origin of these results see publication PMC7819943, “Rice protein-binding microarrays: a tool to detect cis-acting elements near promoter regions in rice”.
